{"source": "PubChem BioAssay AID2675", "about": "(National Center for Advancing Translational Sciences (NCATS), 2010)", "note": "Screen size: about 280,000 compounds; about 100 (0.036%) were called active. This list was built around the results that the source calls inconclusive (neither active nor inactive); the mix of calls is not that of the screen. Calls follow the shape of the dose curve; as a rule, active = well fitted inhibition curve with a large enough effect in the signal ratio, with a control signal flat (not every such curve was filed as active); inconclusive = small, poorly fitted or top-dose-only effect, or effect the other way, or a change in a side signal; inactive = no such curve, though single readings can be large or run the other way; the % refers to the signal ratio. Potencies beside an inconclusive call are fits to weak or partial responses and may not hold up. “Side channel” marks fits to a control or component signal instead of the main read-out. % is scaled to controls: 0 for no effect and ±100 for the full control effect; potency is read from the fitted curve at half-maximal effect; tags tell the direction and shape of the fitted curve or compound fluorescence and quenching."}
{"molecular_target": "Muscleblind-like protein 1 (Homo sapiens) (UniProt Q9NR56)", "sequence (Q9NR56 whole entry, looked up)": "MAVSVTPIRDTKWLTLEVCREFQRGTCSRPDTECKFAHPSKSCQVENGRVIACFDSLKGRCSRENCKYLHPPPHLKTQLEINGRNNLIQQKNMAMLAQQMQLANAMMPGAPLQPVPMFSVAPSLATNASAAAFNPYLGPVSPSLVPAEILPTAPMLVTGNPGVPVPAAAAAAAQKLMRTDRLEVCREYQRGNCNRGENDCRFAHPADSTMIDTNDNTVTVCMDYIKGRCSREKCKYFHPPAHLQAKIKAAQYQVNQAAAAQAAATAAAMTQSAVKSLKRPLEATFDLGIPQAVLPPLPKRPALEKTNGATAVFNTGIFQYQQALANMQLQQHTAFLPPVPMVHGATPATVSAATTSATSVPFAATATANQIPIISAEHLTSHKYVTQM", "experiment": "qHTS Assay for Inhibitors of MBNL1-poly(CUG) RNA binding", "settings": "TR-FRET MBNL1-His/biotin-(CUG)12 binding, 665/545 ratio; activity change, negative = inhibition: at 57.5 µM (top of the series)", "in_short": "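Ratiometric TR-FRET (665 over 545 nm, excitation 340 nm) tracks disruption of MBNL1-His/biotin-(CUG)12 complex after 60 min at room temperature, with compounds at 92 nM to 58 uM final.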"}
{"molecule": "O=C(COC(=O)CCc1c[nH]c2ccccc12)Nc1cc([N+](=O)[O-])ccc1Cl", "Potency": "inconclusive: 39.8 µM [quencher, single point]"}
{"molecule": "Cc1ccc2[nH]c3nc(SCCN4CCOCC4)nnc3c2c1", "Potency": "inconclusive: 11.2 µM [quencher, side channel, partial curve]"}
{"molecule": "COc1cccc(-n2nc(C(C)=O)c(=O)[nH]c2=O)c1", "Potency": "inconclusive: 10 µM [quencher, side channel, partial curve]"}
{"molecule": "CCN(CC)CCNC(=O)c1cc2c(s1)-c1ccccc1SC2", "Potency": "inconclusive: 28.2 µM [quencher, side channel, single point]"}
{"molecule": "CC(C(=O)OCC(=O)c1cccc([N+](=O)[O-])c1)N1C(=O)C2C3C=CC(C3)C2C1=O", "note": "(centres undefined)", "Potency": "inconclusive: 8.91 µM [quencher, partial curve]"}
{"molecule": "CCN(CC)C(=O)CN(c1cc(Cl)ccc1OC)S(=O)(=O)c1ccc(C)c([N+](=O)[O-])c1", "Potency": "inconclusive: 5.01 µM [quencher, side channel, single point]"}
{"molecule": "COc1ccc(OCC(=O)Nc2cccc(-c3nc4ccccc4o3)c2)cc1", "Potency": "inactive"}
{"molecule": "COc1cc2ccccc2cc1C(=O)Nc1sc2c(c1C(N)=O)CCN(C(C)C)C2", "Potency": "inconclusive: 8.91 µM [quencher, side channel, partial curve]"}
{"molecule": "CC(c1ccncn1)N(C)Cc1nc(-c2ccc(C(F)(F)F)cc2)no1", "note": "(centres undefined)", "Potency": "inactive"}
{"molecule": "Cn1c(CNC(=O)OC(C)(C)C)n[nH]c1=S", "Potency": "inconclusive: 17.8 µM [quencher, side channel, partial curve]"}
{"molecule": "COc1cc(CNCCc2c[nH]c3ccccc23)ccc1OCc1ccc(F)cc1", "Potency": "inactive"}
{"molecule": "CCCCn1c(=NC(=O)c2ccco2)c(C(=O)OCC)cc2c(=O)n3ccccc3nc21", "Potency": "inconclusive: 6.31 µM [quencher, side channel, partial curve]"}
{"molecule": "O=C(O)CCC(=O)NNc1nc(-c2ccccc2)c2cc(Cl)ccc2n1", "Potency": "inconclusive: 25.1 µM [quencher, side channel, partial curve]"}
{"molecule": "Cc1ccc(-c2ccc(/C=N/N=C3/NC(=O)C(CC(=O)O)S3)o2)c([N+](=O)[O-])c1", "note": "(centres undefined)", "Potency": "inconclusive: 28.2 µM [quencher, single point]"}
{"molecule": "O=C(CSc1cn(Cc2ccccc2)c2ccccc12)N1CCOCC1", "Potency": "inconclusive: 20 µM [inhibitor, single point]"}
{"molecule": "S=C(NCC1CCCO1)N1CCN(Cc2ccccc2)CC1", "note": "(centres undefined)", "Potency": "inconclusive: 100 µM [inhibitor, single point]"}
{"molecule": "O=C(c1cc2ccccc2o1)N1CCN(S(=O)(=O)c2cccs2)CC1", "Potency": "inactive"}
{"molecule": "CCOP(=O)(OCC)C(C)(C)NC(=O)c1cc([N+](=O)[O-])cc([N+](=O)[O-])c1", "Potency": "inconclusive: 15.8 µM [quencher, partial curve]"}
{"molecule": "O=S(=O)(NCc1cccs1)c1ccc(Br)cc1", "Potency": "inactive"}
{"molecule": "O=C1C=CC(=O)N1CCCCCCN1C(=O)C=CC1=O", "Potency": "inconclusive: 0.1 µM [fluorescent, side channel, full curve]"}
{"molecule": "CC1CN(C2=Nc3cccc4cccc2c34)CC(C)O1", "note": "(centres undefined)", "Potency": "inconclusive: 15.8 µM [quencher, side channel, partial curve]"}
{"molecule": "CCn1nc([N+](=O)[O-])c(C(C#N)c2nc3cc(C(F)(F)F)ccc3s2)c(Cl)c1=O", "note": "(centres undefined)", "Potency": "inconclusive: 28.2 µM [quencher, side channel, single point]"}
{"molecule": "Cc1ccccc1NC(=S)N1CCCC1", "Potency": "inactive"}
{"molecule": "O=C(N/C(=C/c1cccc([N+](=O)[O-])c1)C(=O)N1CCCCCC1)c1cccs1", "Potency": "inconclusive: 20 µM [quencher, side channel, partial curve]"}
{"molecule": "COc1ccccc1/C=C/C=C(\\C#N)C(=O)NC(C)c1ccccc1", "note": "(centres undefined)", "Potency": "inconclusive: 31.6 µM [quencher, side channel, single point]"}
{"molecule": "N#C/C(=C(/O)c1ccc(Br)s1)c1nc2ccccc2[nH]1", "Potency": "inactive"}
{"molecule": "Cc1ccc(N(CCCCN2C(=O)c3ccccc3C2=O)C(=O)c2ccc(Cl)s2)cc1", "activity change, negative = inhibition": "inconclusive: -17.6% [phenotype inactive]"}
{"molecule": "Cc1cccc(-n2c(O)c(C=Nc3ccccc3O)c3ccccc3c2=O)n1", "Potency": "inconclusive: 7.08 µM [quencher, side channel, partial curve]"}
{"molecule": "Cc1cc(C(=O)NCC(c2ccco2)N(C)C)ccc1[N+](=O)[O-]", "note": "(centres undefined)", "Potency": "inconclusive: 12.6 µM [quencher, side channel, partial curve]"}
{"molecule": "CC1=NN(c2nc(-c3ccc(C)cc3)cs2)C(=O)C1N=Nc1cccc(O)c1", "note": "(centres undefined)", "Potency": "inactive"}
{"molecule": "Cc1cccc(/C=C2/Sc3ccc(C(=O)N4CCOCC4)cc3NC2=O)c1", "Potency": "inconclusive: 3.98 µM [quencher, side channel, full curve]"}
{"molecule": "S=C(Nc1ccc(Br)cc1)NC1CCCCC1", "Potency": "inconclusive: 39.8 µM [quencher, side channel, single point]"}
{"molecule": "CC(C)c1ccc(NC(=O)c2snc3ccc(Cl)cc23)cc1", "Potency": "inactive"}
{"molecule": "COC(=O)[C@H]1C[C@@H]1[C@H](NS(=O)(=O)c1ccccc1)c1ccccc1", "Potency": "inconclusive: 0.141 µM [inhibitor, full curve, poor fit]"}
{"molecule": "O=[N+]([O-])c1ccc2nc(N3CCCC3)sc2c1", "Potency": "inconclusive: 10 µM [quencher, partial curve]"}
{"molecule": "CC(c1ccccc1)n1c(-c2cccs2)nc2c(c(=O)c3ccccc3n2C)c1=O", "note": "(centres undefined)", "Potency": "inactive"}
{"molecule": "CCCN1C(=O)/C(=C/c2ccc(OCC(=O)OCC)cc2)NC1=S", "Potency": "inconclusive: 22.4 µM [quencher, side channel, partial curve]"}
{"molecule": "O=C(/C=C/c1ccc2c(c1)OCO2)Nc1c(C(=O)O)[nH]c2ccccc12", "Potency": "inconclusive: 28.2 µM [quencher, side channel, single point]"}
{"molecule": "CCc1ccccc1NC(=O)CSc1nc(-c2ccccc2)nn1C(=O)c1cccc([N+](=O)[O-])c1", "Potency": "inconclusive: 28.2 µM [quencher, side channel, single point]"}
{"molecule": "FC(F)Oc1ccc(NC(=S)NC2CCSc3ccccc32)cc1", "note": "(centres undefined)", "Potency": "inconclusive: 31.6 µM [quencher, side channel, single point]"}
{"molecule": "COc1ccc(-n2c(SCC(=O)Nc3cc(C)on3)nc3ccc(O)cc3c2=O)cc1OC", "Potency": "inconclusive: 100 µM [inhibitor, single point]"}
{"molecule": "CCCn1c(CCc2ccccc2)n[nH]c1=S", "Potency": "inactive"}
{"molecule": "COC(=O)c1ccc(CNC(=O)/C=C/c2cc([N+](=O)[O-])ccc2OC(F)F)cc1", "Potency": "inconclusive: 15.8 µM [quencher, side channel, partial curve]"}
{"molecule": "O=C(COC(=O)c1cccc([N+](=O)[O-])c1)NC1CCCC1", "Potency": "inconclusive: 17.8 µM [quencher, side channel, partial curve]"}
{"molecule": "CCNC(=S)N/N=C/c1cc(C)n(-c2ccc(Cl)cc2)c1C", "Potency": "inactive"}
{"molecule": "CCOC(=O)CNC(=O)CSc1nnc(-c2ccccc2)n1Cc1ccco1", "Potency": "inactive"}
{"molecule": "CC(=O)C(=Nc1ccccc1Cl)NNc1ccc(Cl)cc1", "Potency": "inactive"}
{"molecule": "CSc1ccc(Cl)c(C(=O)N2CCOc3ccccc32)c1", "Potency": "inactive"}
{"molecule": "Cc1nn(CCCC(=O)Nc2cc(Oc3ccccc3)cc([N+](=O)[O-])c2)c(C)c1[N+](=O)[O-]", "Potency": "inactive"}
{"molecule": "O=C1Nc2ccccc2Oc2cc([N+](=O)[O-])ccc21", "Potency": "inconclusive: 11.2 µM [quencher, side channel, partial curve]"}
{"molecule": "O=C(Nc1ccc2c(c1)OCCO2)c1cc(-c2ccccn2)nc2ccc(Br)cc12", "Potency": "inactive"}
{"molecule": "COc1ccc(-c2cc3nc4n(c(=O)c3s2)CCCCC4)cc1", "Potency": "inconclusive: 2.82 µM [quencher, side channel, full curve, poor fit]"}
{"molecule": "O=C(NC(=S)NCCCN1CCOCC1)c1cccc2ccccc12", "Potency": "inconclusive: 22.4 µM [quencher, side channel, single point]"}
{"molecule": "Nc1n[nH]c(=S)n1/N=C1/C(=O)Nc2ccccc21", "Potency": "inconclusive: 39.8 µM [quencher, side channel, single point]"}
{"molecule": "CCc1ccc(NC(=O)Nc2ccc3c(c2)N(C)C(=O)CS3)cc1", "Potency": "inactive"}
{"molecule": "Cc1cccc(NC(=S)N(Cc2ccco2)C(C)c2cccs2)c1", "note": "(centres undefined)", "Potency": "inactive"}
{"molecule": "CCOC(=O)Cc1csc(NC(=O)c2ccc([N+](=O)[O-])cc2[N+](=O)[O-])n1", "Potency": "inconclusive: 12.6 µM [quencher, side channel, partial curve]"}
{"molecule": "O=C(N/N=C/c1ccc(Br)s1)c1ccncc1", "Potency": "inconclusive: 8.91 µM [quencher, side channel, partial curve]"}
{"molecule": "C=C(C)CNC(=S)N=Nc1c(O)[nH]c2ccc([N+](=O)[O-])cc12", "Potency": "inconclusive: 6.31 µM [quencher, side channel, partial curve]"}
{"molecule": "CCOC(=O)CSC1=N/C(=C/c2ccc(-n3cncn3)cc2)C(=O)N1C(C)=O", "Potency": "inconclusive: 3.16 µM [quencher, side channel, full curve]"}
{"molecule": "O=C(c1ccc(F)cc1)c1ccc(N2CCCC2)cc1", "Potency": "inconclusive: 17.8 µM [quencher, side channel, single point]"}
{"molecule": "Cc1ccc2nc3c(cc(C(=O)NCCc4ccccc4)c(=N)n3CC3CCCO3)c(=O)n2c1", "note": "(centres undefined)", "Potency": "inconclusive: 2.82 µM [quencher, side channel, full curve]"}
{"molecule": "CCN(Cc1cc2cc(OC)ccc2[nH]c1=O)C(=O)Cc1ccc(OC)cc1", "Potency": "inactive"}
{"molecule": "O=C1CC(=O)N2N=C(c3ccc([N+](=O)[O-])cc3)SC2=N1", "Potency": "inconclusive: 22.4 µM [activator, single point]"}
